Assay results reported in the supplement of paper PMC4604168 (melanoma cell lines).
This is one part of the list. Repeats are few or missing, and single values can be far off.

What was measured:
Assay in all cases: cell count relative to DMSO control; melanoma cells; higher = more viable cells
Conditions in all cases: library dose: standard library concentration; 72 h
[1] = tested on: G361
[2] = tested on: IPC-298
[3] = tested on: IST-MEL1
[4] = tested on: LB2518-MEL
[5] = tested on: LOXIMVI
[6] = tested on: MEL-HO
[7] = tested on: MZ2-MEL
[8] = tested on: MeWo
[9] = tested on: RPMI7951
[10] = tested on: RVH-421
[11] = tested on: SkMel28
[12] = tested on: SkMel2
[13] = tested on: SkMel30
[14] = tested on: SkMel5
[15] = tested on: UACC257
[16] = tested on: UACC62
[17] = tested on: WM115
[18] = tested on: WM1716
[19] = tested on: WM1745
[20] = tested on: WM3526
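Note: cells treated in 1,536-well plates, then fixed and DAPI-stained, with nuclei counted from automated high-throughput microscope images.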

Nc1ncn([C@H]2C[C@H](O)[C@@H](CO)O2)c(=O)n1 [decitabine] + CC1(C)NC(=O)N(c2ccc([N+](=O)[O-])c(C(F)(F)F)c2)C1=O [nilutamide] (first compound 0.5 µM, partner dose 5 µM)
cell count [1]: 83.2%
cell count [2]: 66.4%
cell count [3]: 68.6%
cell count [4]: 69.5%
cell count [5]: 90%
cell count [6]: 87%
cell count [7]: 94.2%
cell count [8]: 73%
cell count [9]: 76.5%
cell count [10]: 83.5%
cell count [11]: 76.6%
cell count [12]: 92.9%
cell count [13]: 106%
cell count [14]: 71.7%
cell count [15]: 99.9%
cell count [16]: 73.4%
cell count [17]: 59.8%
cell count [18]: 60.7%
cell count [19]: 149%
cell count [20]: 90.8%

Nc1ccn([C@@H]2O[C@H](CO)[C@@H](O)C2(F)F)c(=O)n1 [gemcitabine] + C[C@]1(c2nc3c(C(N)=O)cccc3[nH]2)CCCN1 [Veliparib] (first compound 0.002 µM, partner dose 7 µM)
cell count [1]: 53.4%
cell count [2]: 64.7%
cell count [3]: 41.6%
cell count [4]: 78.2%
cell count [5]: 75.9%
cell count [6]: 78.4%
cell count [7]: 89.9%
cell count [8]: 59.2%
cell count [9]: 65.1%
cell count [10]: 70%
cell count [11]: 93.4%
cell count [12]: 94.3%
cell count [13]: 108%
cell count [14]: 113%
cell count [15]: 90.2%
cell count [16]: 75.2%
cell count [17]: 78.7%
cell count [18]: 71.4%
cell count [19]: 49.6%
cell count [20]: 105%

Nc1nc(F)nc2c1ncn2[C@@H]1O[C@H](CO)[C@@H](O)[C@@H]1O [fludarabine] + COCC[n+]1c2c(n(Cc3cnccn3)c1C)C(=O)c1ccccc1C2=O [YM155] (first compound 1 µM, partner dose 0.002 µM)
cell count [1]: 69.8%
cell count [2]: 48.2%
cell count [3]: 44.3%
cell count [4]: 26.2%
cell count [5]: 39.8%
cell count [6]: 82.8%
cell count [7]: 28.9%
cell count [8]: 55.4%
cell count [9]: 24.8%
cell count [10]: 126%
cell count [11]: 2.33%
cell count [12]: 0.935%
cell count [13]: 16.5%
cell count [14]: 28.4%
cell count [15]: 28.1%
cell count [16]: 48.4%
cell count [17]: 66.3%
cell count [18]: 66.2%
cell count [19]: 90.9%
cell count [20]: 17.9%

Nc1nc(F)nc2c1ncn2[C@@H]1O[C@H](CO)[C@@H](O)[C@@H]1O [fludarabine] + C=CCn1c(=O)c2cnc(Nc3ccc(N4CCN(C)CC4)cc3)nc2n1-c1cccc(C(C)(C)O)n1 [MK1775] (first compound 1 µM, partner dose 0.1 µM)
cell count [1]: 56.4%
cell count [2]: 59.5%
cell count [3]: 59.8%
cell count [4]: 52.6%
cell count [5]: 80.3%
cell count [6]: 59.6%
cell count [7]: 97.6%
cell count [8]: 67.6%
cell count [9]: 22.4%
cell count [10]: 75.5%
cell count [11]: 2.49%
cell count [12]: 1.59%
cell count [13]: 27.5%
cell count [14]: 37.2%
cell count [15]: 33%
cell count [16]: 46%
cell count [17]: 58.7%
cell count [18]: 72.5%
cell count [19]: 41.7%
cell count [20]: 25.9%

CO[C@H]1C[C@@H]2CC[C@@H](C)[C@@](O)(O2)C(=O)C(=O)N2CCCC[C@H]2C(=O)O[C@H]([C@H](C)C[C@@H]2CC[C@@H](OCCO)[C@H](OC)C2)CC(=O)[C@H](C)/C=C(\C)[C@@H](O)[C@@H](OC)C(=O)[C@H](C)C[C@H](C)/C=C/C=C/C=C/1C [everolimus] + C=CCNC1=C2C[C@@H](C)C[C@H](OC)[C@H](O)[C@@H](C)/C=C(\C)[C@H](OC(N)=O)[C@@H](OC)/C=C\C=C(/C)C(=O)NC(=CC1=O)C2=O [Tanespimycin] (first compound 0.1 µM, partner dose 0.01 µM)
cell count [1]: 47.1%
cell count [2]: 56.4%
cell count [3]: 35.9%
cell count [4]: 48.7%
cell count [5]: 77.8%
cell count [6]: 65.4%
cell count [7]: 70.5%
cell count [8]: 53.9%
cell count [9]: 16.4%
cell count [10]: 63.9%
cell count [11]: 35.3%
cell count [12]: 56.5%
cell count [13]: 66.6%
cell count [14]: 41.4%
cell count [15]: 92.6%
cell count [16]: 57.6%
cell count [17]: 22%
cell count [18]: 59.9%
cell count [19]: 39%
cell count [20]: 44.8%

Nc1nc(F)nc2c1ncn2[C@@H]1O[C@H](CO)[C@@H](O)[C@@H]1O [fludarabine] + CC(C)(C)c1cnc(CSc2cnc(NC(=O)C3CCNCC3)s2)o1 [SNS-032] (first compound 1 µM, partner dose 0.05 µM)
cell count [1]: 104%
cell count [2]: 98.2%
cell count [3]: 69%
cell count [4]: 80.7%
cell count [5]: 69.4%
cell count [6]: 81.4%
cell count [7]: 107%
cell count [8]: 97.8%
cell count [9]: 22.2%
cell count [10]: 92.7%
cell count [11]: 0.347%
cell count [12]: 0.629%
cell count [13]: 21.4%
cell count [14]: 29.1%
cell count [15]: 31.6%
cell count [16]: 67.1%
cell count [17]: 91.7%
cell count [18]: 92.9%
cell count [19]: 87.1%
cell count [20]: 27.1%

Nc1ncn([C@H]2C[C@H](O)[C@@H](CO)O2)c(=O)n1 [decitabine] + CN(NC(=O)CC(=O)NN(C)C(=S)c1ccccc1)C(=S)c1ccccc1 [STA4783] (first compound 0.5 µM, partner dose 0.03 µM)
cell count [1]: 67.1%
cell count [2]: 56.3%
cell count [3]: 69.4%
cell count [4]: 86.1%
cell count [5]: 102%
cell count [6]: 79.2%
cell count [7]: 89.6%
cell count [8]: 54.7%
cell count [9]: 101%
cell count [10]: 81.7%
cell count [11]: 94.5%
cell count [12]: 104%
cell count [13]: 95.1%
cell count [14]: 81.4%
cell count [15]: 89.3%
cell count [16]: 64.6%
cell count [17]: 62.5%
cell count [18]: 66.2%
cell count [19]: 120%
cell count [20]: 90.3%

CO[C@H]1C[C@@H]2CC[C@@H](C)[C@@](O)(O2)C(=O)C(=O)N2CCCC[C@H]2C(=O)O[C@H]([C@H](C)C[C@@H]2CC[C@@H](OCCO)[C@H](OC)C2)CC(=O)[C@H](C)/C=C(\C)[C@@H](O)[C@@H](OC)C(=O)[C@H](C)C[C@H](C)/C=C/C=C/C=C/1C [everolimus] + NC(=O)Nc1cc(-c2cccc(F)c2)sc1C(=O)N[C@H]1CCCNC1 [AZD7762] (first compound 0.1 µM, partner dose 0.1 µM)
cell count [1]: 81.4%
cell count [2]: 67.2%
cell count [3]: 90.3%
cell count [4]: 58.6%
cell count [5]: 53.5%
cell count [6]: 69.1%
cell count [7]: 90.6%
cell count [8]: 63.7%
cell count [9]: 27.4%
cell count [10]: 91.7%
cell count [11]: 21.5%
cell count [12]: 49.1%
cell count [13]: 51.4%
cell count [14]: 49.6%
cell count [15]: 86.5%
cell count [16]: 69.4%
cell count [17]: 47.6%
cell count [18]: 76.8%
cell count [19]: 62%
cell count [20]: 47.5%

CO[C@H]1C[C@@H]2CC[C@@H](C)[C@@](O)(O2)C(=O)C(=O)N2CCCC[C@H]2C(=O)O[C@H]([C@H](C)C[C@@H]2CC[C@@H](OCCO)[C@H](OC)C2)CC(=O)[C@H](C)/C=C(\C)[C@@H](O)[C@@H](OC)C(=O)[C@H](C)C[C@H](C)/C=C/C=C/C=C/1C [everolimus] + CC(=O)c1c(C)c2cnc(Nc3ccc(N4CCNCC4)cn3)nc2n(C2CCCC2)c1=O [palbociclib] (first compound 0.1 µM, partner dose 0.2 µM)
cell count [1]: 50%
cell count [2]: 52.6%
cell count [3]: 66.3%
cell count [4]: 56.1%
cell count [5]: 58.6%
cell count [6]: 66.2%
cell count [7]: 82.5%
cell count [8]: 55.6%
cell count [9]: 93.4%
cell count [10]: 99.8%
cell count [11]: 29%
cell count [12]: 50.1%
cell count [13]: 51.9%
cell count [14]: 63.2%
cell count [15]: 85.9%
cell count [16]: 59.1%
cell count [17]: 65.3%
cell count [18]: 43.3%
cell count [19]: 93.9%
cell count [20]: 49.6%

Nc1ncn([C@H]2C[C@H](O)[C@@H](CO)O2)c(=O)n1 [decitabine] + CO[C@@H]1[C@H](N(C)C(=O)c2ccccc2)C[C@H]2O[C@]1(C)n1c3ccccc3c3c4c(c5c6ccccc6n2c5c31)C(=O)NC4 [Midostaurin] (first compound 0.5 µM, partner dose 0.4 µM)
cell count [1]: 37.3%
cell count [2]: 40.8%
cell count [3]: 54.2%
cell count [4]: 49.7%
cell count [5]: 43.5%
cell count [6]: 61.7%
cell count [7]: 37.4%
cell count [8]: 48.2%
cell count [9]: 29.6%
cell count [10]: 58%
cell count [11]: 45.9%
cell count [12]: 45.7%
cell count [13]: 79.3%
cell count [14]: 56.5%
cell count [15]: 52.2%
cell count [16]: 43.9%
cell count [17]: 32.9%
cell count [18]: 31.2%
cell count [19]: 33.9%
cell count [20]: 91.6%

Nc1ccn([C@@H]2O[C@H](CO)[C@@H](O)C2(F)F)c(=O)n1 [gemcitabine] + NCC(=O)Nc1ccc(-n2nc(C(F)(F)F)cc2-c2ccc3c(ccc4ccccc43)c2)cc1 [OSU03012] (first compound 0.002 µM, partner dose 5 µM)
cell count [1]: 45.4%
cell count [2]: 45.7%
cell count [3]: 44.9%
cell count [4]: 66.1%
cell count [5]: 78.6%
cell count [6]: 60.9%
cell count [7]: 63.4%
cell count [8]: 43.9%
cell count [9]: 50.5%
cell count [10]: 57.9%
cell count [11]: 30.4%
cell count [12]: 40.1%
cell count [13]: 57.1%
cell count [14]: 41%
cell count [15]: 84.3%
cell count [16]: 72.2%
cell count [17]: 79.3%
cell count [18]: 71.3%
cell count [19]: 37.5%
cell count [20]: 53.1%

CC(=O)c1c(C)c2cnc(Nc3ccc(N4CCNCC4)cn3)nc2n(C2CCCC2)c1=O [palbociclib] + O=C(CCCCCCC(=O)Nc1ccccc1)NO [vorinostat] (first compound 0.2 µM, partner dose 0.4 µM)
cell count [1]: 60.3%
cell count [2]: 76.9%
cell count [3]: 70.6%
cell count [4]: 58.1%
cell count [5]: 62.9%
cell count [6]: 73.3%
cell count [7]: 69.6%
cell count [8]: 40.2%
cell count [9]: 58.2%
cell count [10]: 67.1%
cell count [11]: 35%
cell count [12]: 41.8%
cell count [13]: 58.6%
cell count [14]: 51.5%
cell count [15]: 75.5%
cell count [16]: 67.8%
cell count [17]: 40.5%
cell count [18]: 40.2%
cell count [19]: 51.4%
cell count [20]: 48.3%

CO[C@H]1C[C@@H]2CC[C@@H](C)[C@@](O)(O2)C(=O)C(=O)N2CCCC[C@H]2C(=O)O[C@H]([C@H](C)C[C@@H]2CC[C@@H](OCCO)[C@H](OC)C2)CC(=O)[C@H](C)/C=C(\C)[C@@H](O)[C@@H](OC)C(=O)[C@H](C)C[C@H](C)/C=C/C=C/C=C/1C [everolimus] + O=C(O)c1ccc(-c2c[nH]c3ncc(-c4ccccc4)cc23)cc1C1CCCC1 [GSK650394] (first compound 0.1 µM, partner dose 0.8 µM)
cell count [1]: 49.9%
cell count [2]: 72.9%
cell count [3]: 66.5%
cell count [4]: 71.4%
cell count [5]: 75%
cell count [6]: 75.8%
cell count [7]: 85.3%
cell count [8]: 70.2%
cell count [9]: 84.5%
cell count [10]: 89.8%
cell count [11]: 65%
cell count [12]: 70.2%
cell count [13]: 91%
cell count [14]: 58.4%
cell count [15]: 82%
cell count [16]: 93.2%
cell count [17]: 63%
cell count [18]: 73.3%
cell count [19]: 85.7%
cell count [20]: 66.9%

Nc1nc(F)nc2c1ncn2[C@@H]1O[C@H](CO)[C@@H](O)[C@@H]1O [fludarabine] + COc1cc2c(Oc3ccc4[nH]c(C)cc4c3F)ncnc2cc1OCCCN1CCCC1 [cediranib] (first compound 1 µM, partner dose 2 µM)
cell count [1]: 92.8%
cell count [2]: 79.4%
cell count [3]: 76.7%
cell count [4]: 80.2%
cell count [5]: 58.6%
cell count [6]: 76.3%
cell count [7]: 126%
cell count [8]: 68.5%
cell count [9]: 71%
cell count [10]: 76%
cell count [11]: 6.84%
cell count [12]: 3.21%
cell count [13]: 18.6%
cell count [14]: 28.6%
cell count [15]: 37.6%
cell count [16]: 53.7%
cell count [17]: 98%
cell count [18]: 107%
cell count [19]: 94.5%
cell count [20]: 34.3%
